The text below walks through data of ChEMBL document CHEMBL1157539, “Thousands of chemical starting points for antimalarial lead identification” (Nature, 2010).

Over roughly 13,000 compounds, “IFI” has its median near 4; the highest 2% begin near 17. The list shows a part of the results.

A short description of the assay: GSK_TCMDC: Inhibition Frequency Index (IFI). The number of non-kinase HTS assays where a compound showed > 50 % inhibition, expressed as a percentage of the number of such assays in which the compound was tested (-0 is zero). The format is functional.
The compound `CN(CCN)Cc1cccc(-c2cccc(-c3nc4cc(F)ccc4[nH]3)c2)c1` had an IFI of 3%. With `CCC(C)NC(=O)Nc1ccc(-c2cccc(-c3nc4ccccc4[nH]3)c2)cc1` (configuration not stated), the IFI was determined as 7.77%. In the case of `CN(CCc1ccccn1)Cc1ccc(-c2ccc(-c3nc4ccccc4[nH]3)s2)cc1` it was 4.1%. `COc1ccc(F)cc1-c1ccc(C(=O)N2CCCN(c3ccc(C(F)(F)F)cn3)CC2)cc1` yielded an IFI of 9.33%.

`CN1CCN(CCCNCc2cccc(-c3ccc(CNCCc4ccccc4)cc3)c2)CC1`: the IFI turned out to be 2.88%. Turning to `CC(C)COc1ccc(C(O)C(CN2CCCCC2)c2ccccc2)cc1` (configuration not stated), the IFI amounted to 0.74%.

On to `CCOC(=O)c1ccc(-c2cnoc2-c2cc(CC)c(OC)cc2O)o1`, for which the IFI worked out at 2.27%. Next, `COc1ccc(-c2cccc(NC(=O)c3cccc(Cl)c3)c2)cc1CN(C)CCN(C)C`: 5.83%. In the case of `CC(C)C[C@@H]1C(=O)N[C@H](C2Cc3ccccc3C2)C(=O)N1[C@@H](C(=O)O)c1ccc(F)cc1F` it was 0.75%. Next, `Cc1noc(C)c1-c1cccc(CNCc2ccc(-c3ccc(-c4nc5cccc(C)c5[nH]4)cc3)cc2)c1`: 7.77%; `c1ccc(CN2CCN(CCNc3c4ccccc4nc4ccccc34)CC2)cc1`: 6.82%; `COc1ccc(N2CCc3c(-c4cccc5cnccc45)cc(C)nc32)c(C)c1`: 15.9%. In turn, `O=C(NCCCCN1CCN(c2cccc3c2CCCC3)CC1)c1ccc(NC(=O)c2ccc(Cl)cc2)cc1` came in with an IFI of 6.78%. Next, `O=C(NCCCCN1CCC(c2ccc3ccccc3c2O)CC1)c1ccc(NC(=O)c2ccc(Cl)cc2)cc1`: 9.26%. On to `COc1ccc(C2CC(=O)C3=C(C2)NC(C)=C(C(=O)OC(C)C)C3c2ccc(O)cc2)cc1OC` (configuration not stated), for which the IFI is 0.74%. In turn, `COc1ccc2nc(-c3ccccc3)cc(NCCN(C)C)c2c1` gave an IFI of 0.75%. Next, `CC(=O)Nc1ccc(CN2CCCN(c3cc(NC(=O)c4cccc(C)c4)ccn3)CC2)cc1`: 10%. Take `CC(C)C[C@H](NC(=O)c1ccc(OCCN2CCOCC2)cc1)C(=O)N[C@H](/C=N/N(C)C(=O)c1ccccc1)CCc1ccccc1`: the IFI is 2.75%. Next, `COc1ccccc1C1CCN(C2CCC(NC(=O)c3cc(-c4ccc(Cl)cc4)cs3)CC2)CC1` (configuration not stated): 16.4%. Next, `O=C(C=Cc1ccc(C(=O)Nc2ccc(C3=NCCN3)cc2)cc1)Nc1ccc(C2=NCCN2)cc1`: 8.89%.

`O=c1[nH]c2ccc(Nc3nccc(NCCc4ccccc4)n3)cc2[nH]1` returned an IFI of 0%. In the case of `Cc1cc(N2CCCCC2)nc2ccc(NC(=O)c3cc(=O)c4ccccc4o3)cc12` it was 0.68%; in that of `c1ccc2cc3c(Nc4ccc(N5CCCCCC5)cc4)ccnc3cc2c1`, 2.24%; in that of `COC(=O)c1ccc(C2OC3(C(=O)c4ccccc4C3=O)C(OC)=C2Cl)cc1C(C)=O` (configuration not stated), 0.75%. In the case of `CCn1ccc2c(N3CCCCS3(=O)=O)cc(C(=O)N[C@@H](Cc3ccccc3)[C@H](O)CNC3CCCCC3)cc21` it was 4.35%; in that of `Cc1cc(Nc2ccc(Cl)c(Cl)c2)n2nc(C)nc2n1`, 1%. In the case of `O=C(/C=C/c1ccc(Cl)c(Cl)c1)NCCCCN1CCCN(C(=O)Nc2ccc(Cl)c(Cl)c2)CC1` it was 7.32%; in that of `Cc1nnc(-c2ccc3ccccc3c2)c2cn(-c3cccc([N+](=O)[O-])c3)nc12`, -0%.

With `C[C@H](NC(=O)c1c(CN2CCN(C(=O)C(C)(C)C)CC2)c(-c2cccs2)nc2ccccc12)C1CCCCC1`, the IFI came to 4.35%. In the case of `COc1cc(-n2c(CN3CCCC3)nc3cc(-c4ccc(Cl)cc4)sc3c2=O)ccc1OCCN1CCCC1` it was 6.99%; in that of `CCCCCCCc1c(C)nc2cccc(OC)c2c1O`, 12.5%; in that of `O=C(NC1CC1)c1cnc(N2CCN(Cc3ccc(Cl)cc3)CC2)c(Cl)c1`, 8.33%. Next, `COc1ccc(C(C(=O)NC2CCN(C[C@H](O)c3ccnc4ccc(OC)cc34)CC2)N2CCN(Cc3ccccc3)CC2)cc1` (some centres not stated): 2.08%; `Nc1cccc(CNCc2cccc(-c3ccc(-c4nc5ccccc5[nH]4)cc3)c2)c1`: 3.81%. Next, `Cc1cnc(Nc2cccnc2)nc1Nc1ccccc1C(=O)NC(C)C`: -0%. `COc1ccc2ccccc2c1C=NNc1ccnc2cc(Cl)ccc12` had an IFI of 2.84%. In the case of `CCNc1cc(C(=O)N[C@@H](Cc2ccccc2)[C@H](O)CNC(C)(C)CSCC(C)C)cc(N2CCCC2=O)c1` it was 2.99%; in that of `CN(C)CCC1CCCc2ccc(NC(=O)Nc3ccc(-c4ccncc4)c4ccccc34)cc21` (configuration not stated), 6.06%. In the case of `CCN1CCN(Cc2ccc(NC(=O)c3cc4ccc5cccnc5c4[nH]3)cc2)CC1` it was 4.62%. In the case of `Cc1cc(N[C@@H](CC(C)C)C(=O)NCCc2ccccc2)nc(NCCc2ccc(F)cc2)n1` it was 6.82%. Compound `CN1CCC(NCc2ccc(-c3ccc(S(=O)(=O)NCc4ccccc4)s3)cc2)CC1` gave an IFI of 8.74%. With `Cc1nnsc1C(=O)Nc1cccc(-c2cccc(-c3nc4cc(F)ccc4[nH]3)c2)c1`, the IFI is 6.42%. For `Cc1ccc(Cc2c(N)nc3nc(N)nc(N)c3c2C)cc1`, the IFI was 3.03%. Compound `CCNc1cc(C(=O)N[C@@H](Cc2ccccc2)[C@H](O)CNCCC(C)(C)C)c(F)c(N2CCCCS2(=O)=O)c1` had an IFI of 1.47%.

Take `CN(C)CCC1CCN(CCS(=O)(=O)c2cccc(Nc3ccc(-c4ccsc4)cn3)c2)CC1`: the IFI worked out at 11.1%. Next, `Cc1ccc(-c2cc(C(=O)Nc3ccc(S(=O)(=O)N(C)Cc4ccccc4)cc3)[nH]n2)c(O)c1`: 4.29%; `CN(C)c1ccc(CN2CCC(NC(=O)c3ccc(-c4cccc(F)c4)s3)CC2)cc1`: 10.5%. `CCOC(=O)c1nc(-c2ccc(Cl)cc2)[nH]c1NC(=S)NCCCN1CCOCC1` returned an IFI of 1.53%.

`Cc1ccc(NC(=O)c2ccc(CN3CCCN(CC4CCCCC4)CC3)cc2)cc1C`: the IFI amounted to 9.09%. In the case of `COc1cc2c(cc1OC)CC(NCCCCCCNCCc1ccc(Cl)cc1)CC2` (configuration not stated) it was 8.03%; in that of `O=C(NC1CCCCC1)N(Cc1ccc(-c2ccc(CNCc3ccc4c(c3)OCO4)cc2)cc1)C1CCN(Cc2ccccc2)CC1`, 6.87%.

As for `Cc1ccccc1Nc1nc(Nc2ccccc2)c2ccccc2n1`, the IFI was 3.65%. Next, `CC1(C)CCCN(c2ncc(-c3cccc(CNCc4ccccc4O)c3)cn2)C1`: 8.14%; `CC(C)c1cn2c3c(cc(C(=O)N[C@@H](Cc4ccccc4)[C@H](O)CNC4CCOCC4)cc13)N(C)S(=O)(=O)CC2`: 4.44%; `Cc1ccc(C(C)C)c(Oc2ccc3nc(N)nc(N)c3c2)c1`: 15.4%. In the case of `O=C(NC1CCN(CCC(NC(=O)c2ccccc2)c2ccc(Cl)c(Cl)c2)CC1)c1ccc(Cl)cc1` (configuration not stated) it was 4.76%.

The compound `O=C(NCCCCN1CCC(c2ccc3c(c2OCCCO)CCCC3)CC1)c1ccc(-c2ccc(C(F)(F)F)cc2)c(CO)c1` came in with an IFI of 10.1%. Next, `C=Cc1cc(NC(=O)N2CCc3cc(OC)c(C(F)(F)F)cc32)cc(-c2cccnc2)c1`: 2.86%; `Cc1cc(O)c2c3c1C(=O)C=C1C3c3c(c(O)cc(O)c3C(=O)C1(C)C)C2=O` (configuration not stated): 13%; `CC(C)(C)c1nn(-c2ccccc2)c2[nH]c(=O)c(CNCc3ccc4c(c3)OCO4)cc12`: 4.48%. Next, `CCCNc1ccc2nccc(CCN3CCC(NCc4ccc5c(c4)NC(=O)CS5)CC3)c2n1`: 3.13%; `CCCCc1ccccc1NS(=O)(=O)c1ccc(OC)c(N2CCNCC2)c1`: 2.86%. In the case of `Cc1ncccc1C(=O)Nc1ccc(-c2cccc(-c3nc4cccc(C)c4[nH]3)c2)cc1` it was 4.63%; in that of `CCn1c(-c2nonc2N)nc2cnc(Oc3cccc(NC(=O)c4ccc(OCCN5CCCCC5)cc4)c3)cc21`, 4.76%; in that of `CCc1cc2c3c(N)nc(N)nc3ccc2n1C(C)CC` (configuration not stated), 8.57%.

Regarding `O=C(Nc1ccc(C(F)(F)F)cc1)c1cccc(S(=O)(=O)NCC2CCCN(CC3CCCCC3)C2)c1` (configuration not stated), the IFI worked out at 4.76%. In the case of `Cn1nc(-c2cccc(CN[C@@H]3CCc4ccc(O)cc43)c2)c2cnc(NCCCN3CCCC3)nc21` it was 3.85%. In the case of `SC(=Nc1ccc(Cl)c(Cl)c1)NN=Cc1ccccn1` it was 6.62%; in that of `Cc1cccc(CNc2nc(C)cc(N[C@@H](CC(C)C)C(=O)NCCOc3ccccc3)n2)c1`, 7.5%. Next, `Clc1ccc(OCCC2CCN(CCCCCCCN3CCC(CCOc4ccc(Cl)c(Cl)c4)CC3)CC2)cc1Cl`: 18.6%.

With `Oc1cc(NC[C@H]2CCC[C@@H]2NCc2cc(Br)cc(Br)c2)nc2ccccc12`, the IFI worked out at 2.99%. In the case of `Oc1ccccc1N1CCN(c2ccc(-c3nc4ccccc4[nH]3)cn2)CC1` it was 10.2%; in that of `COc1ccc(N2CCN(CCCN3CCN(C(=O)c4ccc(/C=C/c5ccc(Cl)c(Cl)c5)cc4)CC3)CC2)c(OC)c1`, 7.96%. `O=C(CCC1CCCC1)N(Cc1ccc(-c2ccc(CNCCc3ccccn3)cc2)cc1)CC1CCCCN1` (configuration not stated) had an IFI of 5.15%.

Compound `CC(C)(C)c1nn(-c2ccccc2)c2[nH]c(=O)c(CNCCc3ccccc3)cc12` showed an IFI of 4.71%.

As to `CCCN(CCC)C(=O)c1cc(C(=O)N[C@@H](Cc2ccccc2)[C@H](O)CNC(C)(C)c2cccc(C(F)(F)F)c2)cc(N2CCCCS2(=O)=O)c1`, the IFI worked out at 5.67%.

The compound `CCCCCCCCNCCCSCCCNCCCCCCCC` came in with an IFI of 14.3%. Next, `CCC(=O)Nc1ccc(Nc2nc(C)cc(N3CCCC3)n2)cc1`: 7.84%; `N#CC1(CCCNCCc2ccc(O)cc2)CCCc2c(O)cccc21` (configuration not stated): -0%; `OCCN1CCN(Cc2ccc(-c3ccc(-c4nc5cc(F)ccc5[nH]4)cc3)cc2)CC1`: 8.91%. In the case of `CN(CCCCCN1CCC(NC(=O)Nc2ccc(C(F)(F)F)cc2)C1)C(=O)/C=C/c1ccc(Cl)c(Cl)c1` (configuration not stated) it was 4.26%. `CCOc1cc(CC)ccc1C1CCN(CCN2CCC(NC(=O)c3ccc(-c4ccc(C#N)cc4)cc3)CC2)CC1` gave an IFI of 6.36%. In turn, `O=C(NCCCNc1nc2ccccc2[nH]1)c1cccc(OC(F)(F)F)c1` displayed an IFI of 1.46%. Next, `O=C(Nc1cccc(CN2CCCN(Cc3ccc(O)cc3)CC2)c1)c1cccc(C(F)(F)F)c1`: 1.38%; `O=C(Cc1c[nH]cn1)Nc1cccc(-c2ccc(-c3nc4cc(C(F)(F)F)ccc4[nH]3)s2)c1`: 3.74%. `O=C(/C=C/c1cccc(Cl)c1)Nc1ccc2nc(CN3CCCC3)ccc2c1`: the IFI stood at 7.59%. Next, `CN1CCN(CCCN(Cc2csc(-c3ccc(CNCc4ccccc4)cc3)n2)S(=O)(=O)c2ccccc2)CC1`: 5.63%.
